Assay in all cases: glycan array binding signal (z-score within array); higher = stronger binding
Common to all, as to conditions: glycan notation: IUPAC condensed, linker removed

For test [1], the target named is Gal(b1-4)GlcNAc(b1-3)Gal(b1-4)GlcNAc(b1-3)Gal(b1-4)GlcNAc(b1-2)Man(a1-3)[Gal(b1-4)GlcNAc(b1-3)Gal(b1-4)GlcNAc(b1-3)Gal(b1-4)GlcNAc(b1-2)Man(a1-6)]Man(b1-4)GlcNAc(b1-4)GlcNAc. The gist of the method: (§1)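 Columns mapping to the same glycan were averaged after glycan names were converted to IUPAC-condensed notation. The data come from 3228 arrays in the Consortium for Functional Glycomics database, limited to those with an available protein sequence. Binding is reported as a within-array Z-score averaged across arrays of one protein sequence and across linkers.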

The target of test [2] is Gal(b1-4)GlcNAc(b1-3)Gal(b1-4)GlcNAc(b1-3)Gal(b1-4)GlcNAc(b1-2)Man(a1-3)[Gal(b1-4)GlcNAc(b1-3)Gal(b1-4)GlcNAc(b1-3)Gal(b1-4)GlcNAc(b1-2)Man(a1-6)]Man(b1-4)GlcNAc(b1-4)[Fuc(a1-6)]GlcNAc. The gist of the method:
as §1

The target in test [3] is Gal(b1-4)GlcNAc(b1-3)Gal(b1-4)GlcNAc(b1-3)Gal(b1-4)GlcNAc(b1-2)[Gal(b1-4)GlcNAc(b1-3)Gal(b1-4)GlcNAc(b1-3)Gal(b1-4)GlcNAc(b1-6)]Man(a1-6)[Gal(b1-4)GlcNAc(b1-3)Gal(b1-4)GlcNAc(b1-3)Gal(b1-4)GlcNAc(b1-2)Man(a1-3)]Man(b1-4)GlcNAc(b1-4)[Fuc(a1-6)]GlcNAc. An outline of the steps:
as §1

For test [4], the target named is Gal(b1-4)GlcNAc(b1-3)Gal(b1-4)GlcNAc(b1-3)Gal(b1-4)GlcNAc(b1-3)Gal(b1-4)GlcNAc(b1-2)Man(a1-3)[Gal(b1-4)GlcNAc(b1-3)Gal(b1-4)GlcNAc(b1-3)Gal(b1-4)GlcNAc(b1-3)Gal(b1-4)GlcNAc(b1-2)Man(a1-6)]Man(b1-4)GlcNAc(b1-4)GlcNAc. The gist of the method:
as §1

Test [5] concerns the target Gal(b1-4)GlcNAc(b1-3)Gal(b1-4)GlcNAc(b1-3)Gal(b1-4)GlcNAc(b1-3)Gal(b1-4)GlcNAc(b1-2)Man(a1-3)[Gal(b1-4)GlcNAc(b1-3)Gal(b1-4)GlcNAc(b1-3)Gal(b1-4)GlcNAc(b1-3)Gal(b1-4)GlcNAc(b1-2)Man(a1-6)]Man(b1-4)GlcNAc(b1-4)[Fuc(a1-6)]GlcNAc. The gist of the method:
as §1

In test [6] the target is Gal(b1-4)GlcNAc(b1-3)Gal(b1-4)GlcNAc(b1-3)Gal(b1-4)GlcNAc(b1-3)Gal(b1-4)GlcNAc(b1-2)[Gal(b1-4)GlcNAc(b1-3)Gal(b1-4)GlcNAc(b1-3)Gal(b1-4)GlcNAc(b1-3)Gal(b1-4)GlcNAc(b1-6)]Man(a1-6)[Gal(b1-4)GlcNAc(b1-3)Gal(b1-4)GlcNAc(b1-3)Gal(b1-4)GlcNAc(b1-3)Gal(b1-4)GlcNAc(b1-2)Man(a1-3)]Man(b1-4)GlcNAc(b1-4)[Fuc(a1-6)]GlcNAc. An outline of the steps:
as §1

Test [7] concerns the target Gal(b1-4)GlcNAc(b1-3)Gal(b1-4)GlcNAc(b1-3)Gal(b1-4)GlcNAc(b1-3)Gal(b1-4)GlcNAc(b1-3)Gal(b1-4)GlcNAc(b1-2)Man(a1-3)[Gal(b1-4)GlcNAc(b1-3)Gal(b1-4)GlcNAc(b1-3)Gal(b1-4)GlcNAc(b1-3)Gal(b1-4)GlcNAc(b1-3)Gal(b1-4)GlcNAc(b1-2)Man(a1-6)]Man(b1-4)GlcNAc(b1-4)GlcNAc. The gist of the method: as §1
The target in test [8] is Gal(b1-4)GlcNAc(b1-3)Gal(b1-4)GlcNAc(b1-3)Gal(b1-4)GlcNAc(b1-3)Gal(b1-4)GlcNAc(b1-3)Gal(b1-4)GlcNAc(b1-2)Man(a1-3)[Gal(b1-4)GlcNAc(b1-3)Gal(b1-4)GlcNAc(b1-3)Gal(b1-4)GlcNAc(b1-3)Gal(b1-4)GlcNAc(b1-3)Gal(b1-4)GlcNAc(b1-2)Man(a1-6)]Man(b1-4)GlcNAc(b1-4)[Fuc(a1-6)]GlcNAc. The gist of the method: as §1
In test [9] the target is Gal(b1-4)GlcNAc(b1-3)Gal(b1-4)GlcNAc(b1-3)Gal(b1-4)GlcNAc(b1-3)Gal(b1-4)GlcNAc(b1-3)Gal(b1-4)GlcNAc(b1-2)[Gal(b1-4)GlcNAc(b1-3)Gal(b1-4)GlcNAc(b1-3)Gal(b1-4)GlcNAc(b1-3)Gal(b1-4)GlcNAc(b1-3)Gal(b1-4)GlcNAc(b1-6)]Man(a1-6)[Gal(b1-4)GlcNAc(b1-3)Gal(b1-4)GlcNAc(b1-3)Gal(b1-4)GlcNAc(b1-3)Gal(b1-4)GlcNAc(b1-3)Gal(b1-4)GlcNAc(b1-2)Man(a1-3)]Man(b1-4)GlcNAc(b1-4)[Fuc(a1-6)]GlcNAc. The gist of the method: as §1

The target in test [10] is Gal(b1-4)GlcNAc(b1-3)Gal(b1-4)GlcNAc(b1-3)Gal(b1-4)GlcNAc(b1-3)Gal(b1-4)GlcNAc(b1-3)Gal(b1-4)GlcNAc(b1-3)Gal(b1-4)GlcNAc(b1-2)Man(a1-3)[Gal(b1-4)GlcNAc(b1-3)Gal(b1-4)GlcNAc(b1-3)Gal(b1-4)GlcNAc(b1-3)Gal(b1-4)GlcNAc(b1-3)Gal(b1-4)GlcNAc(b1-3)Gal(b1-4)GlcNAc(b1-2)Man(a1-6)]Man(b1-4)GlcNAc(b1-4)GlcNAc. The gist of the method: as §1
Test [11] concerns the target Gal(b1-4)GlcNAc(b1-3)Gal(b1-4)GlcNAc(b1-3)GalNAc. An outline of the steps:
as §1

The target in test [12] is Gal(b1-4)GlcNAc(b1-3)Gal(b1-4)GlcNAc(b1-3)[Gal(b1-4)GlcNAc(b1-3)Gal(b1-4)GlcNAc(b1-6)]GalNAc. An outline of the steps:
as §1

For test [13], the target named is Gal(b1-4)GlcNAc(b1-3)Gal(b1-4)GlcNAc(b1-6)[Gal(b1-3)]GalNAc. An outline of the steps:
as §1

The target in test [14] is Gal(b1-4)GlcNAc(b1-3)Gal(b1-4)[Fuc(a1-3)]GlcNAc(b1-3)Gal(b1-4)[Fuc(a1-3)]GlcNAc. The gist of the method: as §1
Test [15] deals with Gal(b1-4)GlcNAc(b1-3)GalNAc. The gist of the method: as §1
The target of test [16] is Gal(b1-4)GlcNAc(b1-3)[Fuc(a1-3)GlcNAc(b1-6)]Gal(b1-4)Glc. An outline of the steps: as §1
Test [17] deals with Gal(b1-4)GlcNAc(b1-3)[Gal(b1-4)GlcNAc(b1-6)]Gal(b1-4)GlcNAc. An outline of the steps:
as §1

Test [18] concerns the target Gal(b1-4)GlcNAc(b1-3)[GlcNAc(b1-6)]Gal(b1-4)GlcNAc. An outline of the steps:
as §1

The target in test [19] is Gal(b1-4)GlcNAc(b1-6)Gal(b1-4)GlcNAc. An outline of the steps: as §1

This is one part of the list.

B1: PX15618A-bth-503-24-503 (Bacteroides thetaiotaomicron) (protein)
chain: NKSEDKLSGDDFWAQGNETNAEAFLLSIYNSFRNATMSQRPFLTYSGDMRCAPITAYSTGDKYVAYLANNDMGELRNTYPDDARGGLIMQWDVFYTAIQDANILLAEIDKVPGMDELKRSRFKAEAIFMRSLSYFFIVRAFGDVPYYTNAYNEAPLPRTNMVIVLQNCLADLQPLLDDDPGAEVLPWSYSSYSSKGIRASRGSVIALMMHINLWLVQFDAQNKEQYYRNVVSLGEELERNNGAYSLLDINRSSVIFAGGSDEGLFEIAQNINFNEIFMMNAKFSDNVSYSCLNKSMPLFCYSGDYLMTLFPMYEDDARKELWFDEKIYSTSVSSSAPKEIKKFWNIDTYGNGTITSNSGNQIVFRYAGALLLYAEALAALGTNDTKACELLNRVRNRAHASEINTSGSELMDAIFWERCRELIGEGHYYYDLVRTGKVYNRNYCMNPMTRTNFNVGAWTWPIHRNALKNNTQIGLNLFWE
Take B1: the “glycan array binding signal (z-score)” value in [1] amounted to 1.77; in [2], 0.321; in [3] it was 0.532; in test [4], 0.837; in test [5], 0.864; in test [6] it was 0.445. In addition, the “glycan array binding signal (z-score)” value in [7] was 2.83; in test [8], -0.115; in [9], 1.51; in test [10], 2.95; in test [11], -0.08; in [12], 0.447. The “glycan array binding signal (z-score)” value in [13] is -0.114; in [14], -0.207; in test [15], -0.749; in test [16], 0.176; in test [17], -0.074; in [18], -0.428. For the same molecule, the “glycan array binding signal (z-score)” value in test [19] was found to be 0.161.

The record behind these values is the supplement of paper PMC8728848.
